Hit rate of the full screen: of about 39,000 compounds, about 220 (0.56%) showed activity. This is one part of the list.

From the supplement of paper PMC9446081 come the findings set out here.
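Further: static incubation at 37 °C against the wild-type strain, values averaged over two biological replicates.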

In the assay the test system is Escherichia coli K-12 BW25113. As to the kind of experiment: relative growth (OD600 normalised to plate interquartile mean) (fraction); higher = less growth inhibition, active = 0.2 or less. The settings on record: 50 µM; LB; incubation time: overnight (16-24 h).
With `Cc1cc2nc3c(=O)[nH]c(=O)nc-3n(C[C@@H](O)[C@@H](O)[C@@H](O)CO)c2cc1C`, the relative growth is inactive: 1.01.

`CC(CCc1ccc(O)cc1)NCCc1ccc(O)c(O)c1.Cl` (stereo unspecified): the relative growth was inactive: 1.09. The value for `CC(C)NC(=O)N(C)C[C@H]1Oc2ccc(NC(=O)NC3CCCCC3)cc2C(=O)N([C@H](C)CO)C[C@H]1C` was inactive: 1.02.

On to `C[C@@H]1CN([C@@H](C)CO)C(=O)Cc2cc(NC(=O)Nc3ccccc3)ccc2O[C@H]1CN(C)S(C)(=O)=O`, for which the relative growth was inactive: 0.99.

For `Cc1noc(C)c1NC(=O)N(C)C[C@@H]1Oc2c(NC(=O)c3ccncc3)cccc2C(=O)N([C@@H](C)CO)C[C@@H]1C`, the relative growth was inactive: 0.959. The value for `O=C(C[C@H]1CC[C@@H](NC(=O)c2ccc(F)cc2)[C@H](CO)O1)NCc1ccncn1` was inactive: 0.986; that for `C[C@H]1CCCCO[C@@H](CN(C)C(=O)Nc2ccc(C(F)(F)F)cc2)[C@@H](C)CN([C@@H](C)CO)C(=O)c2cc(NS(=O)(=O)c3ccc(F)cc3)ccc2O1` was inactive: 1.01; that for `C[C@H]1CN([C@@H](C)CO)C(=O)c2cc(NC(=O)Cn3cnnn3)ccc2O[C@H]1CN(C)S(=O)(=O)c1ccc(Cl)cc1` was inactive: 1.01. Then `CCCC(=O)N1CC[C@]2(CC1)CN([C@@H](CO)c1c2c2ccc(cc2n1C)OC)C(=O)CN1CCOCC1`, with inactive: 1.02; and `COCC#Cc1ccc2c(c1)O[C@@H](CN(C)C(=O)c1ccccc1)[C@H](C)CN([C@@H](C)CO)S2(=O)=O`, with inactive: 1.04; and `C[C@@H]1CCCCO[C@H](CN(C)S(=O)(=O)c2cccs2)[C@@H](C)CN([C@H](C)CO)C(=O)c2cc(NC(=O)CCCCCC(=O)Nc3ccccc3N)ccc2O1`, with inactive: 0.986. Then `COc1cc(C(=O)NC2CCN(C)CC2)ccc1Nc1ncc2c(n1)N(C1CCC(O)CC1)CCC(=O)N2C` (stereo unspecified), with inactive: 1; and `C[C@@H]1CN([C@@H](C)CO)C(=O)c2cc(NC(=O)C3CCCCC3)ccc2O[C@@H](C)CCCCO[C@@H]1CN(C)C(=O)c1ccccc1`, with inactive: 0.991. Regarding `CCS(=O)(=O)Nc1ccc2c(c1)C(=O)N(C)[C@H]1CC[C@H](CC(=O)N[C@@H]3CCN(Cc4ccccc4)C3)O[C@H]1CO2`, the relative growth is inactive: 0.98. Consider `Cc1ccc(S(=O)(=O)N(C)C[C@@H]2Oc3ccc(NC(=O)C4CC4)cc3CC(=O)N([C@@H](C)CO)C[C@@H]2C)cc1`, for which the relative growth is inactive: 1.01. The value for `C[C@H](CO)N1C[C@H](C)[C@@H](CN(C)C(=O)Nc2cccc(F)c2)OCc2ccccc2-c2c(n(C)c3ccccc23)C1=O` was inactive: 1.01.

With `CC[N+](C)(CC)Cc1ccccc1`, the relative growth was inactive: 0.993. As for `C[C@@H]1CN([C@@H](C)CO)C(=O)c2cc(NC(=O)Nc3ccccc3)ccc2O[C@@H](C)CCCCO[C@H]1CN(C)C(=O)Cc1ccccc1`, the relative growth is inactive: 1.02. Regarding `C[C@@H]1CN([C@H](C)CO)C(=O)CCCn2nncc2CO[C@H]1CN(C)C(=O)Nc1ccnc(N2CCOCC2)c1`, the relative growth was inactive: 1. For `CC(=O)c1cccc(S(=O)(=O)N2[C@@H]3CC[C@@H](C3)[C@H]2c2nc3cccc(OCc4ccc(F)cc4)c3[nH]2)c1`, the relative growth was inactive: 0.997.

Consider `C[C@@H](NC(=O)C[C@@H]1C=C[C@@H](NC(=O)CN2CCOCC2)[C@H](CO)O1)c1ccccc1`, for which the relative growth is inactive: 0.992. With `COc1ccc(C(=O)Nc2ccc3c(c2)C(=O)N(C)[C@H]2CC[C@H](CC(=O)NCC4CC4)O[C@H]2CO3)cc1`, the relative growth is inactive: 0.977. The value for `Cc1cn(CCC#N)c2ccccc12` was inactive: 0.983; that for `CC(C)(O)c1cn(-c2ccc(-c3cccc(S(C)(=O)=O)c3)cc2)c(C(C)(C)c2ccccc2Cl)n1` was inactive: 1.04.

Consider `C[C@@H]1CN([C@@H](C)CO)C(=O)c2cc(NC(=O)Cn3cnnn3)ccc2O[C@@H]1CN(C)Cc1ccccc1`, for which the relative growth is inactive: 1.

As to `Cc1ccc(S(=O)(=O)N(C)C[C@@H]2Oc3c(NC(=O)C4CCOCC4)cccc3C(=O)N([C@H](C)CO)C[C@H]2C)cc1`, the relative growth was inactive: 1.01. Then `COc1ccc(S(=O)(=O)N(C)C[C@@H]2Oc3ccc(NC(=O)Cn4cnnn4)cc3C(=O)N([C@@H](C)CO)C[C@H]2C)cc1`, with inactive: 1.03; and `C[C@@H]1CN([C@H](C)CO)C(=O)c2c(c3ccccc3n2C)-c2ccccc2CO[C@H]1CN(C)C(=O)Nc1ccccc1C(F)(F)F`, with inactive: 0.961; and `C[C@@H]1CN([C@@H](C)CO)C(=O)Cc2cc(NC(=O)CCCN(C)C)ccc2O[C@H]1CN(C)Cc1ccncc1`, with inactive: 1.01. On to `C[C@H](CO)N1C[C@H](C)[C@H](CN(C)Cc2ccc(C(=O)Nc3ccccc3N)cc2)Oc2ccc(NS(=O)(=O)c3cn(C)cn3)cc2C1=O`, for which the relative growth was inactive: 1.01. The value for `Cc1noc(C)c1S(=O)(=O)Nc1ccc2c(c1)CC(=O)N([C@H](C)CO)C[C@H](C)[C@H](CN(C)CC1CC1)O2` was inactive: 0.979; that for `C[C@@H]1CN([C@H](C)CO)C(=O)c2cccc(NS(C)(=O)=O)c2O[C@@H]1CN(C)S(=O)(=O)c1cn(C)cn1` was inactive: 0.961.

Take `C[Si](C)(C)O[Si](C)(C)O[Si](C)(C)C`: the relative growth was inactive: 0.894.

With `C[C@@H]1CCCCO[C@H](CN(C)Cc2ccc(Cl)c(Cl)c2)[C@H](C)CN([C@H](C)CO)C(=O)c2cc(NC(=O)CCC(F)(F)F)ccc2O1`, the relative growth is inactive: 1.02. Then `Cc1noc(C)c1S(=O)(=O)N(C)C[C@H]1Oc2ccc(NC(=O)C3CCCCC3)cc2CC(=O)N([C@@H](C)CO)C[C@@H]1C`, with inactive: 1; and `COc1ccc(NC(=O)Nc2cccc3c2O[C@H](CN(C)CC2CCCCC2)[C@H](C)CN([C@H](C)CO)C3=O)cc1`, with inactive: 0.994; and `C[C@@H]1CCCCO[C@H](CN(C)CC2CCCCC2)[C@@H](C)CN([C@H](C)CO)C(=O)c2cc(NC(=O)Nc3cccc4ccccc34)ccc2O1`, with inactive: 1. For `C[C@H](CO)N1C[C@H](C)[C@@H](CN(C)S(=O)(=O)c2ccc(C#N)cc2)OCc2cnnn2CCCC1=O`, the relative growth was inactive: 1.01. The value for `C[C@@H]1CN([C@@H](C)CO)C(=O)c2cccc(NS(=O)(=O)c3ccc(F)cc3)c2O[C@@H]1CN(C)Cc1ccc(-c2ccccc2)cc1` was inactive: 0.978. Then `CCCN(C)C[C@@H]1OCCCC[C@H](C)Oc2ccc(NC(=O)Nc3ccc(F)cc3)cc2C(=O)N([C@@H](C)CO)C[C@@H]1C`, with inactive: 0.94; and `C[C@H](CO)N1C[C@H](C)[C@@H](CN(C)S(=O)(=O)c2ccccc2)Oc2ccc(NC(=O)Cc3ccccc3)cc2CC1=O`, with inactive: 1.01; and `C[C@@H]1CCCCO[C@H](CN(C)S(=O)(=O)c2ccc(Cl)cc2)[C@H](C)CN([C@@H](C)CO)C(=O)c2cc(NC(=O)c3ccncc3)ccc2O1`, with inactive: 0.997. The value for `C[C@H]1CCCCO[C@H](CN(C)Cc2ccc(C(F)(F)F)cc2)[C@@H](C)CN([C@@H](C)CO)C(=O)c2cc(NS(=O)(=O)c3ccccc3)ccc2O1` was inactive: 0.999. Turning to `C[C@H](CO)N1C[C@H](C)[C@@H](CN(C)Cc2ccc(C(=O)O)cc2)Oc2c(NC(=O)c3ccc(-c4nccs4)cc3)cccc2C1=O`, the relative growth was inactive: 0.985. The value for `C[C@@H]1CN([C@@H](C)CO)C(=O)c2cccc(NS(=O)(=O)c3cn(C)cn3)c2O[C@H]1CN(C)CC1CCCCC1` was inactive: 0.985. Then `Cc1cc(C(=O)Nc2cccc3c2O[C@@H](CN(C)Cc2ccc(C(=O)O)cc2)[C@H](C)CN([C@@H](C)CO)C3=O)n(C)n1`, with inactive: 1.02; and `C[C@H]1CCCCO[C@H](CN(C)Cc2ccc3c(c2)OCO3)[C@@H](C)CN([C@@H](C)CO)C(=O)c2cc(NS(=O)(=O)c3ccc(F)cc3)ccc2O1`, with inactive: 0.989. As to `CN(CCOc1ccc(CC2SC(=O)NC2=O)cc1)c1ccccn1.O=C(O)C=CC(=O)O` (stereo unspecified), the relative growth was inactive: 0.921. The value for `COCC#Cc1ccc([C@H]2[C@@H](CO)N3C(=O)CN(C(=O)c4ccncc4)C[C@H]23)cc1` was inactive: 1.01; that for `C[C@H]1CN([C@@H](C)CO)C(=O)c2cccc(NS(=O)(=O)c3ccc(F)cc3)c2O[C@H]1CN(C)S(=O)(=O)c1cn(C)cn1` was inactive: 0.987. The value for `O=C1CCC(=O)N1CNc1ccccn1` was inactive: 0.999.

As for `C[C@H]1CN([C@@H](C)CO)C(=O)Cc2cc(NC(=O)CCCN(C)C)ccc2O[C@@H]1CN(C)C(=O)Nc1ccc2c(c1)OCO2`, the relative growth is inactive: 0.981.

For `CC[C@@H]1CN(C(=O)OC)N1`, the relative growth is inactive: 1.02. Then `O=C(C[C@H]1C[C@H]2c3cc(NS(=O)(=O)c4ccc(F)cc4)ccc3O[C@H]2[C@@H](CO)O1)NCc1ccccc1F`, with inactive: 0.978; and `CCCC#Cc1ccc2c(c1)O[C@H](CN(C)S(=O)(=O)c1cccc(F)c1)[C@H](C)CN([C@@H](C)CO)S2(=O)=O`, with inactive: 1.01; and `COc1ccc(S(=O)(=O)N(C)C[C@H]2Oc3ccc(NS(=O)(=O)c4ccc(F)cc4)cc3CC(=O)N([C@H](C)CO)C[C@H]2C)cc1`, with inactive: 1. The value for `NCC[C@@H]1CC[C@@H](NC(=O)C2CCC2)[C@@H](CO)O1` was inactive: 0.969; that for `Cc1ccc(S(=O)(=O)N(C)C[C@H]2OCCCC[C@@H](C)Oc3ccc(NS(=O)(=O)c4ccc(Cl)cc4)cc3C(=O)N([C@@H](C)CO)C[C@H]2C)cc1` was inactive: 1.02. Turning to `CC(=O)OC[C@H]1O[C@H](n2ccc(=O)[nH]c2=O)[C@@H](OC(C)=O)[C@@H]1OC(C)=O`, the relative growth was inactive: 1.03. The value for `Cn1cnc(S(=O)(=O)N2C[C@@H](O)COC[C@@H]3O[C@@H](CC(=O)N4CCN(c5ccccc5)CC4)CC[C@H]32)c1` was inactive: 0.861; that for `C[C@H]1CN([C@@H](C)CO)C(=O)CCCn2cc(nn2)CO[C@@H]1CN(C)S(=O)(=O)c1ccccc1C#N` was inactive: 0.986.
